PubChem BioAssay AID588591 (National Center for Advancing Translational Sciences (NCATS), 2011)
The whole screen tested about 390,000 compounds, of which about 4,700 (1.2%) were called active. The inconclusive results got no clear call from the source; some entries with a clear call stand among them for comparison. The call rests on the fitted dose curve; in most records, active means well fitted inhibition curve with a large enough effect; inconclusive means small, poorly fitted or top-dose-only effect, or another doubt; inactive means no such curve, though single readings can be large or run the other way. Where the call is inconclusive, the potency comes from a doubtful curve fit.

What follows are compounds tested against DNA polymerase eta (Homo sapiens) (UniProt Q9Y253) (assay: qHTS for Inhibitors of Polymerase Eta). Settings: recombinant Pol eta, fluorescent DNA replication assay; series mostly up to 114 µM; activity change, negative = inhibition: at the top concentration.
Method in brief: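 Pol eta at 10 nM preincubated with compounds 15 min at room temperature; reaction started with fluorescent substrate (50 nM final) and read kinetically at 0 and 10 min.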
On the % scale 0 is the no-effect control and ±100 the full control effect; potency means the concentration at half of the fitted maximal effect; tags describe the fitted curve by direction and shape.

UniProt Q9Y253, sequence (Q9Y253 whole entry, looked up): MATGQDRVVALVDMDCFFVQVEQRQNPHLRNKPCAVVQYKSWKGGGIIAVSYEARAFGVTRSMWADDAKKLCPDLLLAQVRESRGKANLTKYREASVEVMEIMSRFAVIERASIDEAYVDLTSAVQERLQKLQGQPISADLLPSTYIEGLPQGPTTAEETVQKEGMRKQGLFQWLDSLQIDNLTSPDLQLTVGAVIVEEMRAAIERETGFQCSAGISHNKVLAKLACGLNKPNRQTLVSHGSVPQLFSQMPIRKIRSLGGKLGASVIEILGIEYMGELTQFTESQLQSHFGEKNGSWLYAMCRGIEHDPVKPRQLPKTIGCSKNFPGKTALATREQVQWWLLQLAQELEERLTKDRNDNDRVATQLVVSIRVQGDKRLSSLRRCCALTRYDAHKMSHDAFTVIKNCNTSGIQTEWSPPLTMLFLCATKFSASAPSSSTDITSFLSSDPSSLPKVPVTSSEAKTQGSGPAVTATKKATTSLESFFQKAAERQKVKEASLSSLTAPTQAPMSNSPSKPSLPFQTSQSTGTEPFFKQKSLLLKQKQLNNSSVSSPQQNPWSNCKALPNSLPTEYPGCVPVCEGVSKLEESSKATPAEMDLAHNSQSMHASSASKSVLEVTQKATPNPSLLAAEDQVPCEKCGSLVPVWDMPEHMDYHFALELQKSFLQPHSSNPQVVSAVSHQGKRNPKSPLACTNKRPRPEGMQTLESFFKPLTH

SMILES | Potency | activity change, negative = inhibition
O=C(c1ccco1)N(CCC(c1ccccc1)c1ccco1)Cc1ccccc1 (stereo not drawn) | active: 22.4 µM | –
CCOC(=O)C1=C(C)N(C)C(=O)C1CC(=O)O (stereo not drawn) | active: 79.4 µM | –
Cc1ccc(-n2ncc3c(NCc4ccccc4)ncnc32)cc1C | – | inactive: -12.8%
COc1ccc(Cl)cc1C(=O)NNC(=O)c1cc2ccccc2o1 | inconclusive: 39.8 µM [inhibitor, partial curve, poor fit] | –
COc1ccc(S(=O)(=O)N2CCN(C(=O)C3CC3)CC2)cc1Br | – | inactive: -13.1%
CCOC(=O)c1c(NC(=O)COc2cccc3c2CCN(CC)C3=O)sc2c1CCC2 | inconclusive: 25.1 µM [inhibitor, single point] | –
CCOc1c(C(N)=O)c(-c2ccccc2)c2c(=O)[nH]c3ccccc3n12 | inconclusive: 25.1 µM [inhibitor, single point] | –
O=C(c1ccc2nc(-c3ccco3)c(-c3ccco3)nc2c1)N1CCN(c2ncccn2)CC1 | inconclusive: 10 µM [inhibitor, full curve, poor fit] | –
COC(=O)c1c(-c2cccnc2)csc1NC(=O)c1cc(C)on1 | inconclusive: 89.1 µM [inhibitor, single point] | –
CCOc1cc(/C=N/NC(=O)N/N=C/c2ccc(O)c(OCC)c2)ccc1O | – | inactive: -20.3%
CC1CC(=O)c2c(cc3c(-c4c(O)cc(O)c5c(O)c6c(cc45)OC(C)CC6=O)c(O)cc(O)c3c2O)O1 (stereo not drawn) | active: 10 µM | –
Cn1cc(-c2cc3n(n2)CCC(=O)N3CCCC(=O)NCc2ccccc2)c2ccccc21 | – | inactive: 6.56%
COc1ccc(-c2nc3sc(CCNC(=O)c4ccc(C(C)(C)C)cc4)c(C)n3n2)cc1 | – | inactive: -12.3%
Cc1ccc2c(C(=O)CCl)c(C)[nH]c2c1 | inconclusive: 31.6 µM [inhibitor, partial curve, poor fit] | –
CCc1ccccc1NC(=S)/N=C(\N)Nc1nc(C)c2cc(C)ccc2n1 | – | inactive: -3.91%
CC(=O)Nc1ccc(NC(=O)CSc2nc(N)c(NC(=O)c3ccccc3F)c(=O)[nH]2)cc1 | active: 25.1 µM | –
Cc1nc(SCC(=O)NCc2ccco2)[nH]c(=O)c1C | – | inactive: -15.6%
CCCCn1c(N)c(N(CC)C(=O)c2cccc(C)c2)c(=O)[nH]c1=O | inconclusive: 89.1 µM [inhibitor, partial curve, poor fit] | –
Cc1ccc(S(=O)(=O)N2CCCCC2)cc1NC(=O)c1nn(C)c(=O)c2ccccc12 | inconclusive: 22.4 µM [inhibitor, full curve, poor fit] | –
Oc1ccc(C2=Nn3c(nnc3-c3ccco3)SC2)cc1O | active: 3.16 µM | –
O=C(COC(=O)c1ccc([N+](=O)[O-])o1)NC1CCS(=O)(=O)C1 (stereo not drawn) | active: 44.7 µM | –
N#CCC(=O)Nc1ccc(C(=O)OCC(=O)NC(=O)NCc2ccco2)cc1 | inconclusive: 14.1 µM [inhibitor, partial curve, poor fit] | –

SMILES | Potency | activity change, negative = inhibition
CCCNC(=O)c1ccc(COc2ccc(C(C)(C)C)cc2)o1 | inconclusive: 44.7 µM [inhibitor, full curve, poor fit] | –
N#C/C(=C\c1ccc(O)c(O)c1)C(=O)NCCc1ccccc1 | active: 8.91 µM | –
Cc1ccc(-n2nc3ccc(NC(=O)c4ccco4)cc3n2)cc1 | inconclusive: 15.8 µM [inhibitor, partial curve, poor fit] | –
N#CC1(C#N)CC(C=O)=C(N)C1(C#N)CC(=O)C12CC3CC(CC(C3)C1)C2 (stereo not drawn) | inconclusive: 22.4 µM [inhibitor, partial curve, poor fit] | –
COC(=O)c1ccc(OCC(O)CN2CCc3cc(OC)c(OC)cc3C2c2ccccc2)cc1 (stereo not drawn) | inconclusive: 79.4 µM [inhibitor, partial curve, poor fit] | –
Nc1c(C(=O)Nc2cccc(C(=O)O)c2)sc2nc3c(cc12)CCCC3 | inconclusive: 39.8 µM [inhibitor, partial curve] | –
COc1cc([N+](=O)[O-])ccc1NC(=O)N1CCC2(CC1)Nc1cc(F)ccc1-n1cccc12 | – | inactive: -15.1%
CCOc1ccc(C(=O)NCC2CCCN2S(=O)(=O)c2cccs2)cc1 (stereo not drawn) | inconclusive: 0.891 µM [inhibitor, partial curve, poor fit] | –
O=C(NCc1ccco1)c1cc(-c2cccnc2)nc2ccc(Cl)cc12 | inconclusive: 11.2 µM [inhibitor, partial curve, poor fit] | –
CCOC(=O)c1cc(-c2ccc(OC)cc2)n(CCC(=O)NCCc2ccc(OCC)c(OCC)c2)c1C | – | inactive: -4.1%
CCn1cc(/C=C(\NC(=O)c2ccc(OC)c(OC)c2)C(=O)NCCCn2ccnc2)c2ccccc21 | inconclusive: 89.1 µM [inhibitor, single point] | –
CC1=C(C(=O)OCc2ccccc2)C(c2ccc(Br)cc2)NC(=O)N1CCCC(=O)O (stereo not drawn) | – | inactive: -12.1%
O=C(c1cccc(S(=O)(=O)N2CCc3ccccc32)c1)N1CCCC(C(F)(F)F)C1 (stereo not drawn) | – | inactive: -12.7%
CC(=O)Nc1nc(C)c(-c2csc(Nc3cccc([N+](=O)[O-])c3)n2)s1 | inconclusive: 14.1 µM [inhibitor, partial curve, poor fit] | –
COC(=O)c1c(NC(=O)CCCOc2ccccc2C)sc2c1CCC2 | – | inactive: -13.9%
COc1ccc(CC(=O)Nc2ccc(-c3noc(COc4ccccc4C)n3)cc2)cc1 | inconclusive: 20 µM [inhibitor, single point] | –
S=c1[nH]nc(-c2cc(-c3ccccc3)n[nH]2)n1/N=C/c1cccc(Cl)c1 | active: 39.8 µM | –
Cc1ccc(C(=O)OCC(=O)Nc2ncc(Cl)cc2Cl)cc1NC(=O)c1ccco1 | inconclusive: 79.4 µM [inhibitor, partial curve] | –
Cc1ccc(Cn2c(=N)c(C(=O)NCc3ccco3)cc3c(=O)n4ccccc4nc32)cc1 | active: 8.91 µM | –
Cc1ccc(C2=NN(C(=O)CCC(=O)O)C(c3cn(-c4ccccc4)nc3-c3ccc(C)cc3)C2)cc1 (stereo not drawn) | inconclusive: 35.5 µM [inhibitor, single point] | –
COC(=O)C1=C(C)NC2=C(C(=O)c3ccccc32)C1c1ccc(-c2ccc(C(=O)O)cc2)o1 (stereo not drawn) | active: 31.6 µM | –
